Assay results published in PubChem BioAssay AID463173 (ICCB-Longwood Screening Facility, Harvard Medical School, 2010).
Screen size: about 52,000 compounds; about 1,700 (3.3%) were called active. No stated cut-off is given here; in the data, active means survival mostly below about 52% (no sharp cut-off); inactive means mostly above about 56%. The list shows a part of the results.

tested on: Wild type; experiment: S. aureus survival, RN4220 and DeltatarO strains – OD600, teichoic acid synthesis inhibitors, primary screen (AID 463173); conditions: S. aureus RN4220 wild type/DeltatarO growth, OD600, 18 h, stronger effect = lower value, screened at 18.75 µg/mL (by protocol)

**Q.** For Nc1ncc(S(=O)(=O)NCc2ccc(Cl)cc2)cn1, which survival is on record?
**A.** inactive: 57%

**Q.** Which survival does the source give for CC(C)NC(=O)c1ccc(-n2c(-c3ccccc3)cc3c2CCCCC3)cc1 here?
**A.** inactive: 114%

**Q.** Which survival does the source give for CCC(Sc1nc2cc(OC)c(OC)cc2c(=O)n1CCc1ccc(Cl)cc1)C(=O)NCCOC (configuration not stated) here?
**A.** inactive: 71%

**Q.** How did the survival turn out when Cc1ccc(NC(=O)N(Cc2cn(C)c3ccccc23)C2CCCCC2)cc1C was run?
**A.** active: -1%

**Q.** O=C(CSc1nc2ccccc2n1Cc1ccccc1F)NCc1ccccc1 was tested. Which survival did it give?
**A.** inactive: 99%

**Q.** How did the survival turn out when Cc1ccccc1C(=O)Nc1cccc(C(=O)OCc2cc(=O)n3c4c(sc3n2)CCCC4)c1 was run?
**A.** inactive: 64%

**Q.** How did the survival turn out when Cc1cc(C)cc(OCC(=O)Nc2ccc(-c3nc4ccccc4s3)cc2)c1 was run?
**A.** inactive: 88%

**Q.** For COc1cc2nc(SCc3cccc(Cl)c3)n3nc(CCn4nc(C)cc4C)nc3c2cc1OC, which survival is on record?
**A.** inactive: 73%

**Q.** For CCOc1ccc(-c2cc(OC(=O)c3ccccc3)c3c(C)oc(C)c3c(=O)c2)cc1, which survival is on record?
**A.** inactive: 64%

**Q.** With Cn1nnc2c(N3CCN(c4ccccc4F)CC3)ncnc21 as the compound, how does the survival read?
**A.** inactive: 82%

**Q.** Cc1ccc2oc3c(c(=O)c2c1)C(c1ccccc1F)N(CCCN1CCOCC1)C3=O (configuration not stated) was tested. Which survival did it give?
**A.** inactive: 71%

**Q.** How did the survival turn out when COc1ccc(N(CC(=O)NCCc2ccccc2)S(=O)(=O)c2ccccc2)c(OC)c1 was run?
**A.** inactive: 77%

**Q.** Which survival does the source give for CCCCNC(=O)CSc1nc2cc3c(cc2c(=O)n1CCCCCC(=O)NCc1ccc2c(c1)OCO2)OCO3 here?
**A.** inactive: 57%

**Q.** Which survival does the source give for Cc1ccc(-n2c(SCC(=O)NCc3ccc(F)cc3)nc3c([nH]c4ccccc43)c2=O)cc1 here?
**A.** inactive: 85%

**Q.** Cc1cc(C)cc(NC(=O)CCc2c(C)nn(-c3ccc(N4CCCC4)nn3)c2C)c1 was tested. Which survival did it give?
**A.** inactive: 71%

**Q.** For COc1cc2c(cc1OC)C(COc1ccc(F)cc1)N(C(=O)Cc1ccc(F)cc1)CC2 (configuration not stated), which survival is on record?
**A.** inactive: 71%

**Q.** For CCOc1ccc(OCC)c(S(=O)(=O)N2CCN(c3cccc(C)c3C)CC2)c1, which survival is on record?
**A.** inactive: 42%

**Q.** Cc1ccc(Nc2c(-c3ccncc3)nc3ccc(C)cn23)cc1 was tested. Which survival did it give?
**A.** inactive: 81%

**Q.** For CCOC(=O)C1CCN(c2ncnc3c2nnn3C)CC1, which survival is on record?
**A.** active: 10%

**Q.** With Cc1ccc(CN(C(=O)COc2cccc([N+](=O)[O-])c2)c2ccccn2)cc1 as the compound, how does the survival read?
**A.** inactive: 68%

**Q.** CCCS(=O)(=O)c1ncc(Cl)c(C(=O)Nc2scc(-c3ccccc3)c2C(=O)OCC)n1 was tested. Which survival did it give?
**A.** active: 4%

**Q.** How did the survival turn out when Cc1cc(C)cc(N2CCn3c2nc2c3c(=O)n(Cc3ccc(Cl)cc3)c(=O)n2C)c1 was run?
**A.** inactive: 97%

**Q.** Which survival does the source give for CC(C)c1ccc(CNc2nc(-c3ccco3)nn2S(=O)(=O)c2ccc3ccccc3c2)cc1 here?
**A.** inactive: 115%

**Q.** C#CCN1C(=O)C(O)(CC(=O)c2ccccc2)c2ccccc21 (configuration not stated) was tested. Which survival did it give?
**A.** inactive: 115%

**Q.** How did the survival turn out when O=S(=O)(c1ccccc1)c1nc(-c2ccc(Cl)cc2Cl)oc1N1CCCCCC1 was run?
**A.** inactive: 61%

**Q.** With COc1ccc(CNC(=O)Cn2nnc(-c3ccc(S(C)(=O)=O)cc3)n2)cc1 as the compound, how does the survival read?
**A.** inactive: 84%

**Q.** For COc1cccc2c1cc1c(=O)n(CC(=O)N3CCN(c4cc(Cl)ccc4C)CC3)nc(C)n12, which survival is on record?
**A.** inactive: 78%

**Q.** For CCCCNC(=O)C1CCCN(S(=O)(=O)c2ccc(-n3cnnn3)cc2)C1 (configuration not stated), which survival is on record?
**A.** inactive: 106%

**Q.** How did the survival turn out when COc1cccc(-c2cc(C(=O)Nc3cc(OC)c(OC)c(OC)c3)on2)c1 was run?
**A.** inactive: 69%

**Q.** With O=C(CCCn1c(=O)c2cccn2c2cccnc21)NCc1ccc(F)cc1 as the compound, how does the survival read?
**A.** inactive: 115%

**Q.** Which survival does the source give for CCC1CCCCN1CC(=O)N1CCCc2c1c(=O)oc1ccc(OCc3ccccc3)cc21 (configuration not stated) here?
**A.** active: 3%

**Q.** How did the survival turn out when COc1ccc(-c2nc(Cn3c(SCc4ccc(C)cc4)nc4cccnc43)c(C)o2)cc1OC was run?
**A.** inactive: 132%

**Q.** COc1ccc(CNC(=O)CCC(=O)N2CCSc3ccccc32)cc1 was tested. Which survival did it give?
**A.** inactive: 101%

**Q.** With CCOc1ccc(-n2c(C)nc3cc(C(=O)NCCC4=CCCCC4)ccc32)cc1 as the compound, how does the survival read?
**A.** active: -6%

**Q.** How did the survival turn out when COc1ccc(C(=O)CC2(O)C(=O)N(Cc3ccccc3Cl)c3ccccc32)cc1 (configuration not stated) was run?
**A.** inactive: 68%

**Q.** How did the survival turn out when COc1ccc(C2NC(=O)CS2)cc1 (configuration not stated) was run?
**A.** inactive: 103%

**Q.** CCN1CCN(c2ccc(NS(=O)(=O)c3c(C)nc4sccn4c3=O)cc2Cl)CC1 was tested. Which survival did it give?
**A.** inactive: 95%

**Q.** For COc1ccc(-c2nnc(SCC(=O)Nc3ccc(Cl)cc3)s2)cc1, which survival is on record?
**A.** inactive: 69%

**Q.** For CC1=C(C#N)C(c2cccc(Oc3ccccc3)c2)C2=C(CCCC2=O)N1 (configuration not stated), which survival is on record?
**A.** inactive: 132%

**Q.** With CCOC(=O)c1ccc(NC(=O)C2=C(C)Nc3nc(SCc4ccc(Cl)cc4)nn3C2c2ccc(OC)cc2)cc1 (configuration not stated) as the compound, how does the survival read?
**A.** inactive: 92%

**Q.** Which survival does the source give for COc1ccc(-c2nc3sc(CCNC(=O)c4cc(Cl)ccc4OC)c(C)n3n2)cc1 here?
**A.** inactive: 73%

**Q.** C=CCNC(=O)c1ccc(N2C(=O)c3ccccc3C2=O)cc1 was tested. Which survival did it give?
**A.** inactive: 104%

**Q.** How did the survival turn out when Cc1ccccc1NS(=O)(=O)c1ccc(Br)s1 was run?
**A.** inactive: 126%

**Q.** How did the survival turn out when CC(C)(C)S(=O)(=O)c1cccc2ccccc12 was run?
**A.** inactive: 117%

**Q.** With Cc1ccc(C(C)(C)C)c(OCC(=O)NCCc2nc3ccccc3[nH]2)c1 as the compound, how does the survival read?
**A.** inactive: 70%

**Q.** For CN(Cc1ccccc1)S(=O)(=O)c1ccc(F)c(C(=O)Nc2cccc(Cl)c2Cl)c1, which survival is on record?
**A.** inactive: 159%

**Q.** With Cc1ccoc1C(=O)NCc1occc1C(=O)O as the compound, how does the survival read?
**A.** inactive: 103%

**Q.** For CCN(CC)c1cc2c(cc1F)c(=O)c(S(=O)(=O)c1cc(C)ccc1C)cn2Cc1ccccc1, which survival is on record?
**A.** inactive: 85%

**Q.** With Cc1c(/C=C(\C#N)C(=O)Nc2cccc(Cl)c2)c2ccccc2n1Cc1ccccc1Cl as the compound, how does the survival read?
**A.** inactive: 127%

**Q.** How did the survival turn out when CCOC(=O)c1c(NC(=O)c2ccc(S(=O)(=O)N(CCOC)CCOC)cc2)sc2c1CC(C)(C)NC2(C)C was run?
**A.** inactive: 71%

**Q.** How did the survival turn out when CCOc1ccc(C2=NC(c3cccs3)=Nc3ccc(C(C)C)cc3N2)cc1 was run?
**A.** inactive: 84%

**Q.** CC(C)(Cc1nc2ccccc2[nH]1)c1nc2ccccc2[nH]1 was tested. Which survival did it give?
**A.** inactive: 95%

**Q.** N#Cc1c(N2CCOCC2)nc(N2CCOCC2)c2c1CCN(Cc1ccccc1)C2 was tested. Which survival did it give?
**A.** inactive: 112%

**Q.** For Cc1cccc(CC2C(=O)Nc3ccccc32)c1 (configuration not stated), which survival is on record?
**A.** inactive: 79%

**Q.** For O=S(=O)(c1ccccc1)N1CCCc2ccccc21, which survival is on record?
**A.** inactive: 128%

**Q.** Which survival does the source give for CCOc1ccccc1-n1nnc(-c2nc(-c3ccccc3)no2)c1N here?
**A.** inactive: 97%

**Q.** For CCOC(=O)c1cccc(NC(=O)C2CCN(S(=O)(=O)c3ccc4c(c3)oc(=O)n4C)CC2)c1, which survival is on record?
**A.** inactive: 81%
